Reference: PubChem BioAssay AID1508624 (National Center for Advancing Translational Sciences (NCATS), 2021)
About 120 (0.25%) of roughly 48,000 compounds were called active. Another 4% or so got no clear call; they are omitted. Calls come from the whole dose curve; as a rule, active = well fitted activation curve with a large enough effect; inconclusive = small, poorly fitted or top-dose-only effect, or another doubt; inactive = no such curve, though single readings can be large or run the other way. The list shows a part of the results.

Assay: Primary qHTS for Identification of Small Molecule Activators of Huntingtin-Antisense Promoter Activity; note: nearly all actives have a fitted effect of over 55% in size
Details: HEK293 HTT-AS promoter firefly luciferase reporter (activity 0% = vehicle and -100% = no light), 24 h; series mostly up to 57.5 µM; activity change, positive = activation: at the top concentration
Procedure, shortened: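 Firefly luciferase signal from promoter-reporter HEK293 cells was scaled between vehicle (0%) and zero RLU (-100%). Compounds were tested at final concentrations of up to 57.5 uM over 24 h at 37 degrees C. PTC124 at 50 uM final served as control inhibitor.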

Activity change, positive = activation, inactive:
CC(C)CC(=O)OCc1cc(=O)n2nc(C3CCCCC3)sc2n1 17%, Cc1ccc(NC(=O)CN2C(=O)CC(c3ccc(C)c(C)c3)=Nc3ccccc32)cc1 4.74%, CCC(CC)C(=O)Nc1cc(-c2nc3cccnc3s2)ccc1C -0.639%, Cc1cccc(C)c1OC(=O)CSc1nnc(-c2ccc3c(c2)OCO3)o1 -12.2%, CCOC(=O)Cn1c(=O)oc2cc(S(=O)(=O)N3CCN(c4ccc(F)cc4)CC3)ccc21 -8.61%, COc1ccc(Nc2c(-c3ccsc3)nc3nc(C)cc(C)n23)cc1 -0.381%, COc1ccc(CCNC(=O)c2c(C)oc3ncn(CC(C)C)c(=O)c23)c(OC)c1 -12.8%, Nc1ncnc2c1ncn2[C@@H]1O[C@H](CO)C[C@@H]1O -28.7%, COC(=O)c1cc(C)nc2c1c(=O)nc(SCc1ccccc1Cl)n2C1CC1 -22.8%, Cc1ccc(OCC(=O)Nc2ccc3nn(-c4ccc(C)cc4)nc3c2)cc1 25.9%, Cc1nn(CCC(=O)Nc2ccccc2Br)c(=O)c2nn(-c3ccccc3)c(C)c12 -2.38%, Cc1cccc(CCNC(=O)CCS(=O)(=O)c2cc3c(cc2C)NC(=O)CO3)c1 -12%, CCc1nnc2c(Nc3ccccc3Br)nc3ccccc3n12 -3.54%, CCOC(=O)N1CCC2(CC1)OC(=O)C(C)=C2C(=O)NCc1ccccc1OC -8.09%, Cn1cnc(S(=O)(=O)N2CCC(C(=O)Nc3ccc(Cl)c(C(F)(F)F)c3)CC2)c1 -30%, COc1ccccc1N1CCN(C(=O)CNS(=O)(=O)c2ccc(Br)s2)CC1 -41.3%, COc1ccc(-c2cc(C(=O)NCCc3ccccc3)c3c(-c4ccc(Cl)cc4)[nH]nc3n2)cc1 -6.85%, C1N2CN3CN1CN(C2)C3 -0.355%, COc1ccc(CCNC(=O)CS(=O)(=O)Cc2nc(-c3cccc(Cl)c3)oc2C)cc1OC -25.4%, COc1ccc(CNC(=O)c2cccn2-c2nnc(N3CCCCC3)s2)c(OC)c1 -4.5%, Cc1cccc(N2C(=O)N(Cc3cccc(C#N)c3)c3ccccc3S2(=O)=O)c1 -33.3%, Cc1ccc(CSc2nc3ccncc3n2Cc2nc(-c3ccccc3C)oc2C)cc1 0.621%, O=C(CCS(=O)(=O)c1cc(Br)cc2c1N(C(=O)C1CC1)CC2)N1CCN(c2cccc(C(F)(F)F)c2)CC1 -36.2%, O=C(Cn1c(=O)n(Cc2ccc(C(=O)NCc3ccc4c(c3)OCO4)cc2)c(=O)c2ccccc21)Nc1ccccc1F -12%, CC(C)N(Cc1nc(-c2ccc(Cl)cc2)no1)C(=O)c1ccco1 -31.4%, COc1ccc(-n2ccn(CC(=O)Nc3ccc(C)cc3C)c(=O)c2=O)cc1 -4.91%, COc1ccc(CNC(=O)c2sc3nc4n(c(=O)c3c2C)CCC4)cc1 8.08%, CCCc1nnc(NC(=O)C(CC)Sc2nnc3c4ccccc4n(C)c3n2)s1 (stereo not drawn) -15.4%, COc1ccc2c(c1)c1c(c(=O)n(-c3cccc(C)c3)c(=O)n1CC(=O)NCc1ccc(C)cc1)n2C -4.04%, CC(C)(C)c1ccc(C(=O)NC(Cc2c[nH]c3ccccc23)C(=O)OCC(=O)c2ccc(Br)cc2)cc1 (stereo not drawn) -10.9%, CC(C)OCCCNC(=O)CN1C(=O)c2ccccc2Sc2ncccc21 -4.51%, O=C(Nc1cccc2c1CCCC2)N1CCOc2ccc(Cl)cc21 -19.1%, CCCC(=O)Nc1ccc2nc(SCC(=O)N3CCOCC3)sc2c1 1.73%, Cc1oc2ncnc(N3CCOCC3)c2c1C(=O)NCc1ccc(Cl)cc1 -16.7%, N#C/C(=C\c1ccc(-c2cccc(Cl)c2)o1)C(=O)Nc1cccc(C(F)(F)F)c1 -21%, Fc1ccc(N2CCN(c3ncnc4[nH]ncc34)CC2)cc1 -23.8%, Cc1cccc(C(C)C)c1NC(=O)c1ccc2c(c1)CCCN2S(C)(=O)=O -12.8%, Cc1cc(Cl)ccc1OCC(=O)N(Cc1ccc(N(C)C)cc1)C1CCS(=O)(=O)C1 (stereo not drawn) -14.8%, CCCn1cc(S(=O)(=O)c2cccc(Cl)c2)c(=O)c2cc(F)c(N3CCCC3)cc21 -24.6%, CCOC(=O)c1cc(-c2ccc(C)cc2)n(CC(=O)Nc2ccc(OC)cc2OC)c1C -3.08%, Cc1ccc(NC(=O)CSc2nccn2C2CCCC2)cc1Cl 17.5%, Cc1ccc(S(=O)(=O)N(CC(=O)NCCSc2ccc(Cl)cc2)c2cccc(Cl)c2)cc1 -29.6%, CCN1CCN(C(c2ccc(F)cc2)c2sc3nc(-c4ccco4)nn3c2O)CC1 (stereo not drawn) -9.86%, Cc1ccc(S(=O)(=O)CCC(=O)N2CCN(c3nc4c(C)c(C)ccc4s3)CC2)cc1 -20%, COc1ccc(N2CCN(C(c3ccc(F)cc3)c3sc4nc(-c5ccco5)nn4c3O)CC2)cc1 (stereo not drawn) -16%, Cc1ccc(OCC(=O)Nc2nonc2-c2ccc(Br)cc2)cc1 -5.47%, CCCCCN(C)CCC(O)(P(=O)(O)O)P(=O)(O)O -13.3%, CCc1cc(=O)[nH]c(SCc2nc(-c3ccc(C(F)(F)F)cc3)no2)n1 -43.5%, CCC(C)NC(=O)c1cnn(-c2cccc(F)c2)c1-n1cccc1 (stereo not drawn) -16%, CC(=O)N1CCCC1c1nc2ccccc2n1Cc1ccccc1F (stereo not drawn) -14.7%, COc1ccc(Cn2c(=O)c3ccccc3n3c(-c4cccc(OC)c4OC)nnc23)cc1 -9.31%, Cc1cccc(NC(=O)C2CCN(c3cnccn3)CC2)c1 -17%, CC1CCN(S(=O)(=O)c2ccc3c(c2)oc(=O)n3CC(=O)O)CC1 -0.0649%, COc1ccc(CC(=O)Nc2ccc3nc(N4CCCCC4)cc(C)c3c2)cc1 -5.31%, CCOC(=O)c1c(NC(C)=O)c2c3c(sc2n1Cc1nc(-c2ccccc2Cl)oc1C)CCCC3 -32.5%, Cc1ccc(CNC(=O)c2cc3c(s2)-c2c(C)cccc2OC3)cc1 -8.73%, Cc1ncc([N+](=O)[O-])n1C -0.342%, CC(C)OC(=O)C(C(=O)OC(C)C)=C1SC=CS1, Cc1cc(C)cc(NC(=O)N2CCN(c3cc(-c4noc(C)n4)ccc3C)CC2)c1 -45.5%, COc1ccc2c(c1)c1c(c(=O)n(Cc3ccccc3)c(=O)n1CC(=O)NCc1ccccc1)n2C -22.5%, CCOc1ncc(F)c(=O)[nH]1 -1.74%, COc1ccc(CNCc2c(C(=O)O)n(Cc3ccc(F)cc3)c3cc(C)ccc23)cc1OC -29.5%, CN(C)CCN(Cc1ccco1)C(=O)c1oc2ccccc2c1NC(=O)c1cccc(F)c1 0%, CCOCCCNC(=O)c1ccc(-n2c(-c3ccccc3)cc3c2CCCCC3)cc1 -0.808%, CCC(=O)N1CCc2cc(Br)cc(S(=O)(=O)CCC(=O)Nc3cccc(C)c3C)c21 4.94%, CCCn1cnc2cc(NCc3ccc(OC)cc3OC)ccc21 5.95%, Cc1cc(=O)oc2cc(OCC(=O)Nc3ccc(O)c(C(=O)O)c3)ccc12 -5.87%, Oc1ccc(NCc2ccc(OCc3ccccc3)cc2)cc1 13.7%, CCOc1ccc(CC(=O)N2CCc3cc(OC)c(OC)cc3C2COc2ccc3c(C)cc(=O)oc3c2)cc1 (stereo not drawn) 0%, CCOc1ccc(NC(=O)CCc2c(C)nc3cc(-c4ccc(Cl)cc4)nn3c2C)cc1 -79.8%, CC(C)CNS(=O)(=O)c1ccc(N2CCCCS2(=O)=O)cc1 -4.79%, CCCCCn1c(=O)[nH]c2cc(C(=O)NCc3ccccc3)ccc2c1=O -17.2%, Cc1ccc(CNC(=O)CS(=O)(=O)Cc2nc(-c3ccccc3C)oc2C)cc1 -13.5%, CCCOc1ccc(NC(=O)C(=O)NCCCN2CCOCC2)cc1 -57.7%, COc1ccc(CNC(=O)Cc2c(C)c3c(cc(C)c4c(C)c(C)oc43)oc2=O)cc1OC -8.3%, Cc1cccc(Cn2c(SCc3ccc(C(=O)NC4CCCC4)cc3)nc3ccncc32)c1 -20.2%, CCN(CC)S(=O)(=O)c1ccc2c(c1)N(CC(=O)NCCCN1CCN(c3cc(Cl)ccc3C)CC1)C(=O)CO2 -34.4%, Cc1cccc(-c2noc(CNC(=O)c3ccccc3Br)n2)c1 -6.31%, Cc1ccc(NC(=O)c2sc(-n3nc(C)c(Cc4ccc5c(c4)OCO5)c3C)nc2C)cc1Cl -8.88%, CCOC(=O)C1CCC(CN(Cc2ccc(OC)cc2)S(=O)(=O)c2ccc(F)c(C(=O)Nc3c(C)cccc3C)c2)CC1 (stereo not drawn) -10.6%, CS(=O)(=O)Nc1ccccc1C(=O)OCc1cc(=O)n2nc(C3CCCCC3)sc2n1 -5.16%, Cc1ccccc1Nc1c(-c2ccccc2)nc2cccc(C)n12 2.7%, Cc1cc(F)ccc1NC(=O)CS(=O)(=O)c1cccc2nsnc12 -5.2%, O=C(Cn1cnc2c(nc3n2CCCCC3)c1=O)Nc1ccc(F)c(Cl)c1 -18.5%, COc1ccc(CNc2nc(SCc3ccccc3Cl)nc3ccccc23)cc1 -26.7%, CSc1ccc(CCNC(=O)c2cc3cc(S(=O)(=O)N4CCCCC4)ccc3n2C)cc1 -37%, CCOC(=O)C(C#N)=C(c1ccccc1)c1ccccc1 -11.2%, COc1ccc(N2CC(NC(=O)C3CCCC3)CC2=O)cc1OC (stereo not drawn) -7.41%, CC1CCCN(S(=O)(=O)c2cc3c4c(c2)CC(=O)N4CCC3)C1 (stereo not drawn) -17.3%, Cn1nc(C(=O)N2CCN(c3ccc(F)cc3)CC2)c2c1-c1ccccc1SC2 -13.4%, COc1ccc(CCNC(=O)c2cn(C)c3ccc(S(=O)(=O)N(C)C)cc3c2=O)cc1OC -6.66%, CC(C)c1ccc(NC(=O)Cn2nnc(C(=O)NCc3ccc(Cl)cc3)c2N)cc1 -3.4%, CCN(C(=O)c1cn(CC(C)C)c(=O)c2cc(OC)c(OC)cc12)c1cc(OC)ccc1OC -13%, COc1ccc2c(c1)sc1ncc(C(=O)NCc3cccc(C)c3)c(=O)n12 -12.7%, CCc1ccc(C(=O)c2cn(CC(=O)Nc3cc(F)ccc3F)c3nc(C)ccc3c2=O)cc1 -7.09%, COc1ccccc1NC(=O)c1sc2nc3c(cc2c1N)CN(Cc1ccccc1)CC3 -22.1%, CCNC(=O)c1c(NC(=O)c2nc(S(=O)(=O)CC)ncc2Cl)sc2c1CCCC2 -17.7%, CCOC(=O)c1c(C)c(-c2ccccc2)n(CC(=O)NCCc2cccc(C)c2)c1C -11.8%
